Experimental data reported in the antibiotic and cytotoxicity screens of Wong et al. (2023).
Some of the results follow.

What was measured:
[1] = system: HSkMC (human skeletal muscle cells); assay: cytotoxicity call (relative viability < 0.9); conditions: 10 µM
[2] = system: HepG2; assay: cytotoxicity call (relative viability < 0.9); conditions: 10 µM
[3] = system: S. aureus RN4220; assay: growth inhibition call (relative growth <= 0.2); conditions: 50 µM

Row | Compound | cytotoxicity call [1] | cytotoxicity call [2] | growth inhibition call [3]
1 | O=C(C[C@@H]1C=C[C@@H](NC(=O)c2cccnc2)[C@H](CO)O1)NCc1ccncn1 | inactive | inactive | inactive
2 | NCc1csc2c1CCCC2 | inactive | inactive | inactive
3 | Cc1ccc(C#N)c(=O)[nH]1 | inactive | inactive | inactive
4 | NNC(=O)c1ccc(/C=N\O)nc1 | inactive | inactive | inactive
5 | C/C(=N\N)c1nnn(-c2nonc2N)c1C | inactive | inactive | inactive
6 | C[C@@H]1CCCCO[C@H](CN(C)C(=O)Cc2ccccc2)[C@H](C)CN([C@@H](C)CO)C(=O)c2cc(NS(=O)(=O)c3ccc(F)cc3)ccc2O1 | inactive | inactive | inactive
7 | c1ccc(NC2CCCCC2)nc1 | inactive | inactive | inactive
8 | Cc1noc(C)c1NC(=O)Nc1cccc2c1O[C@H](CN(C)S(C)(=O)=O)[C@@H](C)CN([C@@H](C)CO)C2=O | inactive | inactive | inactive
9 | C[C@H]1CN([C@@H](C)CO)C(=O)c2cccc(NC(=O)CCCCCC(=O)Nc3ccccc3N)c2O[C@@H]1CN(C)C(=O)Nc1cccc2ccccc12 | inactive | inactive | inactive
10 | C[C@H](CO)N1C[C@H](C)[C@@H](CN(C)Cc2ccc3c(c2)OCO3)Oc2c(NC(=O)Nc3cccc4ccccc34)cccc2C1=O | inactive | inactive | inactive
11 | CC(=O)NCCn1cccc1 | inactive | inactive | inactive
12 | O=C(C[C@H]1C=C[C@H](NC(=O)c2cccnc2)[C@@H](CO)O1)NCCN1CCCCC1 | inactive | active | inactive
13 | C[C@H]1CCCCO[C@H](CN(C)C(=O)NC2CCCCC2)[C@@H](C)CN([C@@H](C)CO)C(=O)c2cc(NC(=O)Nc3ccc4c(c3)OCO4)ccc2O1 | inactive | inactive | inactive
